According to the supplement of paper PMC11741623:
This is one part of the list. Interaction screen of human proteins with wild-type SARS-CoV-2 proteins by split-DHFR complementation in yeast, 1 µg/mL methotrexate. Value = fitness of the pair (three or more lineages) minus that of the viral protein without a human partner, on a scale set by negative (0) and fused positive (1) controls, mean of up to three cultures; higher = more likely to interact. Active = false discovery rate below 0.05 (one-sided t-test) in at least one culture. Nearly all pairs are not hits, and differences among them are mostly noise (correlation between cultures about 0.3); most hits were seen in one culture only. Human sequences are the Swiss-Prot entries looked up by gene name; the clone may be another isoform. NSP2 values were corrected by the authors for a growth advantage. Listed are human proteins with a hit and a random twelfth of the others.

Assays:
Test in all cases: yeast fitness gain over the viral ORF with no human partner (scaled fitness); higher = more likely to interact
SARS-CoV-2 E = target: SARS-CoV-2 E
Method: (§1)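 Split mouse DHFR complementation in pooled diploid yeast: human ORFeome clones carry one fragment and viral ORFs the other; barcoded lineages compete in 1 µg/mL methotrexate and fitness is read by barcode sequencing in up to three cultures.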

SARS-CoV-2 M = target: SARS-CoV-2 M
Method: as §1

SARS-CoV-2 N = target: SARS-CoV-2 N
Method: as §1

SARS-CoV-2 NSP1 = target: SARS-CoV-2 NSP1
Method: as §1

SARS-CoV-2 NSP10 = target: SARS-CoV-2 NSP10
Method: as §1

SARS-CoV-2 NSP12 = target: SARS-CoV-2 NSP12
Method: as §1

SARS-CoV-2 NSP13 = target: SARS-CoV-2 NSP13
Method: as §1

SARS-CoV-2 NSP14 = target: SARS-CoV-2 NSP14
Method: as §1

SARS-CoV-2 NSP15 = target: SARS-CoV-2 NSP15
Method: as §1

SARS-CoV-2 NSP16 = target: SARS-CoV-2 NSP16
Method: as §1

SARS-CoV-2 NSP2 = target: SARS-CoV-2 NSP2
Method: as §1

SARS-CoV-2 NSP4 = target: SARS-CoV-2 NSP4
Method: as §1

SARS-CoV-2 NSP5 = target: SARS-CoV-2 NSP5
Method: as §1

SARS-CoV-2 NSP6 = target: SARS-CoV-2 NSP6
Method: as §1

SARS-CoV-2 NSP7 = target: SARS-CoV-2 NSP7
Method: as §1

SARS-CoV-2 NSP8 = target: SARS-CoV-2 NSP8
Method: as §1

SARS-CoV-2 NSP9 = target: SARS-CoV-2 NSP9
Method: as §1

SARS-CoV-2 ORF10 = target: SARS-CoV-2 ORF10
Method: as §1

SARS-CoV-2 ORF3A = target: SARS-CoV-2 ORF3A
Method: as §1

SARS-CoV-2 ORF3B = target: SARS-CoV-2 ORF3B
Method: as §1

SARS-CoV-2 ORF6 = target: SARS-CoV-2 ORF6
Method: as §1

SARS-CoV-2 ORF7A = target: SARS-CoV-2 ORF7A
Method: as §1

SARS-CoV-2 ORF7B = target: SARS-CoV-2 ORF7B
Method: as §1

SARS-CoV-2 ORF8 = target: SARS-CoV-2 ORF8
Method: as §1

SARS-CoV-2 ORF9B = target: SARS-CoV-2 ORF9B
Method: as §1

[1] = target: SARS-CoV-2 ORF9Bwu (the 73-codon ORF)
Method: as §1

SARS-CoV-2 S = target: SARS-CoV-2 S
Method: as §1

Measured: yeast fitness gain

B1: OAZ3, Q9UMX2 (protein)
chain: MPCKRCRPSVYSLSYIKRGKTRNYLYPIWSPYAYYLYCYKYRITLREKMLPRCYKSITYKEEEDLTLQPRSCLQCSESLVGLQEGKSTEQGNHDQLKELYSAGNLTVLATDPLLHQDPVQLDFHFRLTSQTSAHWHGLLCDRRLFLDIPYQALDQGNRESLTATLEYVEEKTNVDSVFVNFQNDRNDRGALLRAFSYMGFEVVRPDHPALPPLDNVIFMVYPLERDVGHLPSEPP
inactive: SARS-CoV-2 E 0.0406 | SARS-CoV-2 M 0.0838 | SARS-CoV-2 N -0.336 | SARS-CoV-2 NSP1 = -0.00282 | SARS-CoV-2 NSP10 = 0.0571 | SARS-CoV-2 NSP12 = -0.0247 | SARS-CoV-2 NSP13 = 0.0123 | SARS-CoV-2 NSP14 = -0.0496 | SARS-CoV-2 NSP15 = 0.0385 | SARS-CoV-2 NSP16 = 0.0838 | SARS-CoV-2 NSP2 = -0.15 | SARS-CoV-2 NSP4 = -0.056 | SARS-CoV-2 NSP5 = 0.0425 | SARS-CoV-2 NSP6 = 0.00283 | SARS-CoV-2 NSP7 = 0.00779 | SARS-CoV-2 NSP8 = 0.0168 | SARS-CoV-2 NSP9 = -0.0267 | SARS-CoV-2 ORF10 = 0.0129 | SARS-CoV-2 ORF3A -0.03 | SARS-CoV-2 ORF3B -0.0597 | SARS-CoV-2 ORF6 = -0.00448 | SARS-CoV-2 ORF7A -0.0364 | SARS-CoV-2 ORF7B 0.0134 | SARS-CoV-2 ORF8 = -0.0297 | SARS-CoV-2 ORF9B 0.0164 | [1] -0.0337 | SARS-CoV-2 S 0.00996

B2: CCND3, P30281 (protein)
chain: MELLCCEGTRHAPRAGPDPRLLGDQRVLQSLLRLEERYVPRASYFQCVQREIKPHMRKMLAYWMLEVCEEQRCEEEVFPLAMNYLDRYLSCVPTRKAQLQLLGAVCMLLASKLRETTPLTIEKLCIYTDHAVSPRQLRDWEVLVLGKLKWDLAAVIAHDFLAFILHRLSLPRDRQALVKKHAQTFLALCATDYTFAMYPPSMIATGSIGAAVQGLGACSMSGDELTELLAGITGTEVDCLRACQEQIEAALRESLREASQTSSSPAPKAPRGSSSQGPSQTSTPTDVTAIHL
inactive: SARS-CoV-2 E -0.0485 | SARS-CoV-2 M 0.034 | SARS-CoV-2 N 0.0727 | SARS-CoV-2 NSP1 = -0.0253 | SARS-CoV-2 NSP10 = 0.0715 | SARS-CoV-2 NSP12 = 0.044 | SARS-CoV-2 NSP13 = 0.0392 | SARS-CoV-2 NSP14 = 0.114 | SARS-CoV-2 NSP15 = -0.0511 | SARS-CoV-2 NSP16 = -0.01 | SARS-CoV-2 NSP2 = -0.0891 | SARS-CoV-2 NSP4 = 0.133 | SARS-CoV-2 NSP5 = 0.0058 | SARS-CoV-2 NSP6 = 0.0618 | SARS-CoV-2 NSP7 = -0.0117 | SARS-CoV-2 NSP8 = -0.034 | SARS-CoV-2 NSP9 = 0.0424 | SARS-CoV-2 ORF10 = 0.0282 | SARS-CoV-2 ORF3A 0.0737 | SARS-CoV-2 ORF3B 0.0266 | SARS-CoV-2 ORF6 = 0.0375 | SARS-CoV-2 ORF7A -0.00315 | SARS-CoV-2 ORF7B 0.00886 | SARS-CoV-2 ORF8 = 0.0149 | SARS-CoV-2 ORF9B 0.019 | [1] 0.0629 | SARS-CoV-2 S -0.0335

B3: PRSS22, Q9GZN4 (protein)
chain: MVVSGAPPALGGGCLGTFTSLLLLASTAILNAARIPVPPACGKPQQLNRVVGGEDSTDSEWPWIVSIQKNGTHHCAGSLLTSRWVITAAHCFKDNLNKPYLFSVLLGAWQLGNPGSRSQKVGVAWVEPHPVYSWKEGACADIALVRLERSIQFSERVLPICLPDASIHLPPNTHCWISGWGSIQDGVPLPHPQTLQKLKVPIIDSEVCSHLYWRGAGQGPITEDMLCAGYLEGERDACLGDSGGPLMCQVDGAWLLAGIISWGEGCAERNRPGVYISLSAHRSWVEKIVQGVQLRGRAQGGGALRAPSQGSGAAARS
inactive: SARS-CoV-2 E 0.0243 | SARS-CoV-2 M 0.0337 | SARS-CoV-2 N -0.00996 | SARS-CoV-2 NSP1 = 0.0311 | SARS-CoV-2 NSP10 = -0.0173 | SARS-CoV-2 NSP12 = 0.11 | SARS-CoV-2 NSP13 = 0.00071 | SARS-CoV-2 NSP14 = -0.0173 | SARS-CoV-2 NSP15 = -0.0408 | SARS-CoV-2 NSP16 = 0.07 | SARS-CoV-2 NSP2 = -0.167 | SARS-CoV-2 NSP4 = 0.235 | SARS-CoV-2 NSP5 = 0.045 | SARS-CoV-2 NSP6 = 0.0593 | SARS-CoV-2 NSP7 = -0.0331 | SARS-CoV-2 NSP8 = -0.0431 | SARS-CoV-2 NSP9 = -0.0363 | SARS-CoV-2 ORF10 = 0.0392 | SARS-CoV-2 ORF3A 0.0573 | SARS-CoV-2 ORF3B 0.037 | SARS-CoV-2 ORF6 = 2.1e-05 | SARS-CoV-2 ORF7A -0.0348 | SARS-CoV-2 ORF7B -0.0906 | SARS-CoV-2 ORF8 = 0.0113 | SARS-CoV-2 ORF9B 0.0578 | [1] 0.0422 | SARS-CoV-2 S -0.0433
